Experimental data as given in PMC4336329 (PLoS ONE, 2015).
Screen size: about 310,000 compounds; about 2,200 (0.71%) showed an effect of 50% or more. The effect is printed as a negative number. The list shows a part of the results.

Target: human ether-à-go-go-related gene (hERG) potassium channel (human, UniProt Q12809)
Experiment: primary screen, population patch clamp on CHO cells stably expressing hERG

human ether-à-go-go-related gene (hERG) potassium channel, sequence (Q12809 whole entry, looked up): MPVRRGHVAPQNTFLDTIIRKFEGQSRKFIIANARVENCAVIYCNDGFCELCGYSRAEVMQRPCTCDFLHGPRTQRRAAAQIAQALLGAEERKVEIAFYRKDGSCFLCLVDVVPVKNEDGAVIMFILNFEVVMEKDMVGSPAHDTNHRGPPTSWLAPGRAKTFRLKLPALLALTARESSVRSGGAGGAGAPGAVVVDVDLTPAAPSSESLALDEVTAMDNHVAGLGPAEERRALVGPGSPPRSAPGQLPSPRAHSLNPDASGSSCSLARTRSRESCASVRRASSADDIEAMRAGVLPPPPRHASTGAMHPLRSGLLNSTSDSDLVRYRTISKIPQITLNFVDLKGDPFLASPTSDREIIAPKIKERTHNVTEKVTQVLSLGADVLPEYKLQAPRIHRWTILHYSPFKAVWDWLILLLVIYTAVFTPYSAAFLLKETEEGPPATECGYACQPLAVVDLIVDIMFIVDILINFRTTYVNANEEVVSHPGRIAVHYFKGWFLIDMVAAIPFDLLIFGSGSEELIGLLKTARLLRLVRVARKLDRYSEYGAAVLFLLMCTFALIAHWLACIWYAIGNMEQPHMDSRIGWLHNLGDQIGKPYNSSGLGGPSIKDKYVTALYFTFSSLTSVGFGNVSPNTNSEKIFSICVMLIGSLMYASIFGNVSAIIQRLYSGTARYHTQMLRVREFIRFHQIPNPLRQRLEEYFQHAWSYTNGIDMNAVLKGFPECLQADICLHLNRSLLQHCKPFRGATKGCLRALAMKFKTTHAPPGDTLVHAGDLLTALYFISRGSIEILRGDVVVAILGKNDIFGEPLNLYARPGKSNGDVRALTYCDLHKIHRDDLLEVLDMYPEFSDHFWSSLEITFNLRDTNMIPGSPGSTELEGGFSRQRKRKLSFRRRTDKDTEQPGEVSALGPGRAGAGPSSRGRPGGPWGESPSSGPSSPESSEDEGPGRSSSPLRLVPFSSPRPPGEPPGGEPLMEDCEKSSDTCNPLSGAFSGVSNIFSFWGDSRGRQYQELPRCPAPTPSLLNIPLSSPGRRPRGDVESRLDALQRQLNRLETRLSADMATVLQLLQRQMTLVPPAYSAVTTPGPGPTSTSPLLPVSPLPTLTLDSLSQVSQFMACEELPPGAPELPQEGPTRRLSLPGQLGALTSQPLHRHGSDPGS

| SMILES | hERG current change (%, negative = inhibition) at 1uM [%] |
| --- | --- |
| CNC(=O)c1cc(Nc2nnc(-c3ccc(C)c(S(N)(=O)=O)c3)c3ccccc23)ccc1OC | 11.4 |
| CCC(C)[C@H](NC(=O)N1CCCCC1)C(=O)OC (stereo partly shown) | 1.88 |
| C(=C\c1ccccc1)/CSc1nnc(-c2cnccn2)n1Cc1ccco1 | -25.2 |
| CC(=O)NN1C(=O)c2ccccc2NC1c1ccc([N+](=O)[O-])o1 (stereo not shown) | -3.31 |
| COc1ccc(C(CNC(=O)c2ccco2)N2CCCCC2)cc1 (stereo not shown) | 10.3 |
| CCC(NC(=O)Nc1cc(OC)c(OC)c(OC)c1)(C(F)(F)F)C(F)(F)F | 3.77 |
| O=C(CCc1nnc2ccc(NCc3ccccc3Cl)nn12)NC1CCCCC1 | 2.72 |
| COc1cccc(OCc2ccc(Cl)cc2)c1C#N | 10.2 |
| COc1cccc(NC(=O)C2c3cc(OC)c(OC)cc3C(=O)N(C)C2c2cccnc2)c1 (stereo not shown) | 1.83 |
| CCOc1ccc(CN(C(=O)/C=C/c2ccco2)C2CCS(=O)(=O)C2)cc1 (stereo not shown) | 4.16 |
| O=C(CN1CCN(S(=O)(=O)c2ccccc2)CC1)Nc1ccc2c(c1)CCC2 | 8.5 |
| O=C(Nc1ccccc1N1CCN(C(=O)c2ccc(Cl)cc2)CC1)c1cc2ccccc2o1 | 6.77 |
| Cc1cccc(NC(=O)c2ccc([N+](=O)[O-])o2)c1 | 13.3 |
| CC1CCN(C(=O)C(=O)c2cn(CC(=O)N3CCCCCC3)c3ccccc23)CC1 | 7.77 |
| CSc1nc(N2CCN(C)CC2)c2ccccc2n1 | -13.6 |
| O=C1N=c2ccccc2=C1c1sc(=S)n(CC2CCCO2)c1O (stereo not shown) | 10.8 |
| Cc1cccc(NC(=O)Cn2c(O)c(N=NC(=O)c3ccccc3O)c3ccccc32)c1 | 6.51 |
| N#CCCN1CCN(S(=O)(=O)c2ccc(S(=O)(=O)N3CCCCCC3)cc2)CC1 | 9.01 |
| COc1ccc(Cl)cc1C(=O)Nc1cccnc1Cl | 6.85 |
| O=C(C1CC(=O)N(c2ccccc2)C1)N1CCCCCC1 (stereo not shown) | 13 |
| CCn1c(CNC(=O)C2CCCCC2)cc2cc(C)ccc21 | 18.8 |
| O=CNc1ccc(OC(=O)c2cncc(Br)c2)cc1 | 14.1 |

| SMILES | hERG current change (%, negative = inhibition) at 1uM [%] |
| --- | --- |
| O=C(NCC1CCCO1)c1cn(-c2ccccc2)nc1-c1ccc(F)cc1 (stereo not shown) | 9.15 |
| COC(=O)c1ccc(Cn2cnc3cnccc32)cc1 | 15.6 |
| Cc1cccc(C2c3[nH]c4ccccc4c3CCN2Cc2cccn2-c2ncccn2)c1 (stereo not shown) | 6.48 |
| CCCc1cc(=O)[nH]c(SCC(=O)c2ccc(S(=O)(=O)N3CCCC3)cc2)n1 | 8.15 |
| COc1cccc(NC(=O)CS(=O)(=O)c2cccc3nsnc23)c1 | 9.29 |
| CCc1ccccc1NC(=O)C(C)n1nc([N+](=O)[O-])c(Br)c1C (stereo not shown) | 12 |
| CCCn1c(Nc2ccccc2)nc2ccccc21 | 11.5 |
| Cc1cc(C)c(N(C(=O)c2csnn2)C(C(=O)NC(C)(C)C)c2ccncc2)c(C)c1 (stereo not shown) | 1.08 |
| CC(C)N1CCN(Cc2c[nH]c3ccccc23)CC1CCO (stereo not shown) | 11.7 |
| COc1ccccc1CNC(=O)CSc1nnc2ccc(-c3cccnc3)nn12 | 4.82 |
| CC1CCCCC1NC(=O)CCN1C(=O)C2C3C=CC(C3)C2C1=O (stereo not shown) | 15.4 |
| CC(C)OP(=O)(OC(C)C)C(O)c1ccccc1F (stereo not shown) | 8.93 |
| COc1ccccc1N1CCN(C(=O)Cn2cnc3c2c(=O)n(C)c(=O)n3C)CC1 | 9.48 |
| CS(=O)(=O)N1CCN(c2ccc(NC(=O)c3cccnc3Cl)cc2)CC1 | 14.5 |
| Cn1c(CNc2ccc(Cl)cc2)nnc1SCCN1CCCCC1 | -21.4 |
| CSCC[C@H](NC(=O)[C@@H]1Cc2ccccc2CN1)C(=O)NC1CCCCC1 | 14.7 |
| Cc1ccc(NC(=O)NC(=O)N(C(C)C)S(C)(=O)=O)nc1 | -3.45 |
| O=C(Cc1ccccc1[N+](=O)[O-])N1CCN(c2ccccc2F)CC1 | 23.4 |
| Cc1sc2ncnc(NCC3(N4CCOCC4)CCCCC3)c2c1C | -23 |
| CC(O)CNc1nc(NCc2ccccc2)c2cnn(C)c2n1 (stereo not shown) | 23.8 |
| COc1ccccc1NC(=S)c1ccccc1 | 5.44 |
| Fc1ccccc1COc1cccc2cccnc12 | 10.1 |

| SMILES | hERG current change (%, negative = inhibition) at 1uM [%] |
| --- | --- |
| CC12CCC(C[N+](C)(C)C1)C2(C)C.[I-] (stereo not shown) | 12.3 |
| Cc1ccc(N(CC(=O)N2CCN(Cc3ccccc3)CC2)S(C)(=O)=O)cc1C | -0.162 |
| CC(C)OCCOc1ccc2oc(-c3ccco3)cc(=O)c2c1 | 9.95 |
| CCOC(=O)c1ccc(N/C=C/C(=O)c2ccc(OC)cc2)cc1 | 9.14 |
| CCOc1ccc(C2C(C(=O)c3cccs3)=C(O)C(=O)N2Cc2cccnc2)cc1OC (stereo not shown) | 7.62 |
| COc1ccc(C2=NN(C(=O)c3cccs3)C(c3ccc(OC)cc3)C2)cc1 (stereo not shown) | 20.3 |
| Cc1cc(OC(C)C(=O)N(Cc2ccco2)C2CCS(=O)(=O)C2)ccc1Cl (stereo not shown) | -4.11 |
| COc1ccc(NS(=O)(=O)c2ccc(C)c(C(=O)N3CCC3)c2)cc1 | 7.95 |
| CN(CC(=O)Nc1ccccc1Cl)C(=O)CSc1nnc(N)s1 | 14 |
| CC(O)c1nc2ccccc2n1CCCCOc1ccccc1 (stereo not shown) | 22.3 |
| COCc1nnc(NC(=O)CS(=O)(=O)c2ccc(C)cc2)s1 | 12.5 |
| Cc1ccc2c(c1)C(C)(C)[C@]1(C)NC(=O)CCN21 | 8.67 |
| COC(=O)c1cc(-c2c(-c3cc(OC)c(OC)c(OC)c3)noc2C)cc([N+](=O)[O-])c1 | 3.06 |
| Fc1ccc(-n2nnc(-c3ncc[nH]3)n2)cc1 | 9.84 |
| COCc1cc(=O)n2[nH]c(-c3ccco3)cc2n1 | 10.6 |
| O=C(CNC(=S)N(CCCN1CCOCC1)Cc1cccs1)NCc1ccc(Cl)cc1 | -61.3 |
| O=C(O)c1cccc(S(=O)(=O)NCCc2ccccc2)c1 | 3.88 |
| CCc1ccc(CNC(=O)Cn2nc(-c3ccc(C)cc3)ccc2=O)cc1 | -3.33 |
| CCn1c(-c2ccsc2)nc2c1c(=O)[nH]c(=O)n2Cc1ccccc1 | 12.2 |
| c1ccc(Nc2cccc(Nc3ccccc3)n2)cc1 | -6.01 |
| COc1ccc(-c2nn(CCC#N)cc2C(=O)Nc2ccccc2)cc1OC | -6.45 |
| Cc1ccc(S(=O)(=O)N2CCN(C(=O)C3CCCO3)CC2)cc1C (stereo not shown) | 15.1 |

| SMILES | hERG current change (%, negative = inhibition) at 1uM [%] |
| --- | --- |
| O=C(CCNS(=O)(=O)c1ccc2[nH]c(=O)oc2c1)Nc1cccc(Br)c1 | 15.6 |
| CC1Nc2ccccc2C(=O)N1NC(=O)c1ccc(Br)cc1 (stereo not shown) | 8.24 |
| COC(=O)COc1ccc(S(=O)(=O)N2CCN(c3ccc(F)cc3)CC2)cc1 | -3.44 |
| CC(C)(C)OC(=O)N1CCC(c2cc(=O)n3[nH]cc(C(=O)NC4CCCC4)c3n2)CC1 | 13.8 |
| COc1ccc(-c2cc3nc4n(c(=O)c3s2)CCCCC4)cc1 | 11 |
| O=C(Cc1ccccc1)N1CCCC1c1ccccc1 (stereo not shown) | 10.1 |
| O=C1CCCC(O)=C1Sc1ccccc1C(=O)O | 7.98 |
| COc1ccc(N(C(=O)c2snc(C(N)=O)c2N)C(C(=O)NC2CCCC2)c2cc(OC)ccc2OC)cc1 (stereo not shown) | 1.31 |
| O=C(c1cc(S(=O)(=O)N2CCCCC2)ccc1F)N1CCC2(CC1)OCCO2 | -12.1 |
| CCOc1ccccc1N(C(=O)CNC(=O)c1ccco1)C(C(=O)NC1CCCC1)c1cccnc1 (stereo not shown) | 1.39 |
| CC(NC(=O)c1ccc2nc[nH]c2c1)c1ccccc1 (stereo not shown) | 6.54 |
| CCN1CCN(c2ccc(S(=O)(=O)N3CCOCC3)cc2NC(=O)C(C)Oc2cccc(Cl)c2)CC1 (stereo not shown) | -25.8 |
| COc1ccc(C(=O)Nc2ccccc2C(=O)Nc2ccccc2C(=O)O)cc1 | 10.6 |
| Cc1noc(C)c1COC(=O)/C=C/c1ccccc1Cl | 7.66 |
| Cc1ccc2c(c1)C1CN(C)CCC1N2C(=O)CCCN1C(=O)c2cccc3cccc(c23)C1=O (stereo not shown) | -6.16 |
| O=C(O)c1ccc2c(c1)C(=O)N(c1cccc(C(=O)/C=C/c3ccccc3)c1)C2=O | 16.3 |
| O=c1c(-c2n[nH]c(=S)o2)cccn1Cc1ccccc1 | 6.74 |
| Cc1nc(SCc2ccc(Cl)cc2)ncc1C(=O)O | 12 |
| O=C(O)Cn1c2c(c3ccccc31)CSc1ccc(Cl)cc1-2 | 18 |
| C#CCOCCOCCOCCNc1nc(N2CCN(C(=O)C([C@@H](C)CC)n3cc(C(N)COC(=O)C(F)(F)F)nn3)CC2)nc(N2CCN(C(=O)[C@H](Cc3ccc(O)cc3)n3cc(C(N)[C@H](C)CC)nn3)CC2)n1.Cl (stereo partly shown) | 16.4 |
| CCCOc1ncnc2c1[nH]c1ccc(OC)cc12 | 10.1 |
| COc1ccc(Cl)cc1NC(=O)C(C)OC(=O)Cn1cc(C(F)(F)F)ccc1=O (stereo not shown) | 11.5 |
